# PubChem BioAssay (Tox21)
# Values joined by “and” are separate entries in the source; they are usually repeats but may differ in a detail not shown here. Equal values may be shown once. Inconclusive means that the source gave no clear call. Such entries were picked first, then a sample of the others. Entries that show only a call come without a potency. For some of these results: A potency beside an inconclusive call is a rough fit, not a confirmed value. Some structures have more than one record in an assay (separate samples or runs), and their calls can disagree. Active and inactive are the calls of the source. Unless noted, calls follow the shape of the dose curve; as a rule, active = well fitted curve in the direction sought with a large enough effect in the repeat runs; inconclusive = weak or mixed curves; inactive = no such curve, though single readings can be large; an effect the other way counts as inactive or inconclusive.
# Tests used:
# [1] = qHTS assay to identify small molecule agonists of the estrogen receptor beta (ER-beta) signaling pathway - cell viability counter screen (AID 1259380); also: nearly all actives have a fitted effect of over 30% in size; also: potency is read from the fitted curve at half-maximal effect
# Summary of the method: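 Viability of ER-beta-UAS-bla HEK293T cells was determined by CellTiter-Glo luminescence following 16 hr treatment with test compounds at 37C.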
# [2] = molecular target: Progesterone receptor (Homo sapiens) (UniProt P06401); experiment: qHTS assay to identify small molecule agonists of the progesterone receptor (PR) signaling pathway (AID 1346784; calls by dose curve; also: nearly all actives have a fitted effect of over 30% in size; also: potency is read from the fitted curve at half-maximal effect); conditions: PR-UAS-bla HEK293T, beta-lactamase FRET ratio, 16 h; activation: at 92.4 µM (top of the series) unless noted
# Summary of the method: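 The screen uses PR-UAS-bla HEK 293T cells in charcoal-stripped serum (2%). Compounds are applied for 16 hr at 37C after a 6 hr pre-incubation, and reporter activity is detected with a FRET beta-lactamase substrate after 2 hr at room temperature.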
# [3] = qHTS assay to identify small molecule agonists of the estrogen receptor alpha (ER-alpha) signaling pathway in the presence of an antagonist - cell viability counter screen (AID 1259386);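 also: cells exposed to compounds for 22 h at 37 °C before the viability read; nearly all actives have a fitted effect of over 30% in size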; also: potency is read from the fitted curve at half-maximal effect
# Summary of the method: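 Fluorescent CellTiter-Fluor viability signal from VM7Luc4E2 cells, with the reagent added during the final hour of a 22hr compound exposure at 37C in the presence of 10.0nM ICI-182,780.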
# [4] = molecular target: Progesterone receptor (Homo sapiens) (UniProt P06401); experiment: qHTS assay to identify small molecule antagonists of the progesterone receptor (PR) signaling pathway (AID 1346795; active = well fitted inhibition curve with a large enough effect in the signal ratio in the repeat runs, not every such curve was filed as active; inconclusive = weak or mixed curves; the % refers to the signal ratio; also: potency is read from the fitted curve at half-maximal effect); conditions: PR-UAS-bla HEK293T, beta-lactamase FRET ratio, 16 h; activity change, negative = inhibition: at 92.4 µM (top of the series) unless noted
# Summary of the method: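 After 6 hr plating at 37C in 2% stripped-serum medium, PR-UAS-bla HEK293T cells got compounds, then 1 nM R5020. Sixteen hours later, LiveBLAzer substrate was applied for 2 hr at room temperature and fluorescence was recorded.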
# [5] = qHTS assay to identify small molecule agonists of the TGF-beta/Smad signaling pathway (AID 1346859; active = well fitted activation curve with a large enough effect in the signal ratio in the repeat runs, not every such curve was filed as active; inconclusive = weak or mixed curves; the % refers to the signal ratio; also: potency is read from the fitted curve at half-maximal effect); conditions: SBE-bla HEK293T, TGF-beta/Smad beta-lactamase reporter, 5 h; activation: at 76.8 µM (top of the series)
# Summary of the method: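 Dual-wavelength fluorescence (460/530 nm emission) quantified beta-lactamase expression under the Smad binding element in HEK 293T cells following 5 hr compound treatment at 37 C.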
# [6] = qHTS assay to identify small molecule antagonists of the progesterone receptor (PR) signaling pathway - cell viability counter screen (AID 1346798); also: nearly all actives have a fitted effect of over 50% in size; also: potency is read from the fitted curve at half-maximal effect
# Summary of the method: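 Viability was determined by ATP-based luminescence (CellTiter-Glo) in PR-UAS-bla HEK293T cells cultured in 2% charcoal-stripped serum and incubated 16 hr with compounds under R5020 stimulation.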
# [7] = qHTS assay to identify small molecule agonists of the progesterone receptor (PR) signaling pathway - cell viability counter screen (AID 1346799; calls by dose curve; also: nearly all actives have a fitted effect of over 45% in size; also: potency is read from the fitted curve at half-maximal effect)
# Summary of the method: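 Viability was scored by ATP luminescence (CellTiter-Glo, 30 min, room temperature) in the same wells used for the reporter readout, after 16 hr compound exposure of PR-UAS-bla HEK293T cells.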
# [8] = molecular target: Thyrotropin receptor (Homo sapiens) (UniProt P16473); experiment: qHTS assay to identify small molecule antagonists of the thyroid stimulating hormone receptor (TSHR) signaling pathway (AID 1259385; calls by dose curve; also: nearly all actives have a fitted effect of over 20% in size); conditions: TSHR-HEK293 cAMP HTRF, TSH-stimulated antagonist mode; activity change, negative = inhibition: at 92.4 µM (top of the series) unless noted
# Summary of the method: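 TSHR-HEK293 cells (800/well) plated 18 h, then compounds with Ro20-1724 and TSH at 1.5 ng/mL final, 30 min at room temperature. cAMP quantified by HTRF (cAMP-d2/anti-cAMP-cryptate, 1 h); 15 concentrations in triplicate.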
# Tags tell the direction and shape of the fitted curve or compound fluorescence and quenching.
# Sequence of UniProt P06401 (P06401 whole entry, looked up): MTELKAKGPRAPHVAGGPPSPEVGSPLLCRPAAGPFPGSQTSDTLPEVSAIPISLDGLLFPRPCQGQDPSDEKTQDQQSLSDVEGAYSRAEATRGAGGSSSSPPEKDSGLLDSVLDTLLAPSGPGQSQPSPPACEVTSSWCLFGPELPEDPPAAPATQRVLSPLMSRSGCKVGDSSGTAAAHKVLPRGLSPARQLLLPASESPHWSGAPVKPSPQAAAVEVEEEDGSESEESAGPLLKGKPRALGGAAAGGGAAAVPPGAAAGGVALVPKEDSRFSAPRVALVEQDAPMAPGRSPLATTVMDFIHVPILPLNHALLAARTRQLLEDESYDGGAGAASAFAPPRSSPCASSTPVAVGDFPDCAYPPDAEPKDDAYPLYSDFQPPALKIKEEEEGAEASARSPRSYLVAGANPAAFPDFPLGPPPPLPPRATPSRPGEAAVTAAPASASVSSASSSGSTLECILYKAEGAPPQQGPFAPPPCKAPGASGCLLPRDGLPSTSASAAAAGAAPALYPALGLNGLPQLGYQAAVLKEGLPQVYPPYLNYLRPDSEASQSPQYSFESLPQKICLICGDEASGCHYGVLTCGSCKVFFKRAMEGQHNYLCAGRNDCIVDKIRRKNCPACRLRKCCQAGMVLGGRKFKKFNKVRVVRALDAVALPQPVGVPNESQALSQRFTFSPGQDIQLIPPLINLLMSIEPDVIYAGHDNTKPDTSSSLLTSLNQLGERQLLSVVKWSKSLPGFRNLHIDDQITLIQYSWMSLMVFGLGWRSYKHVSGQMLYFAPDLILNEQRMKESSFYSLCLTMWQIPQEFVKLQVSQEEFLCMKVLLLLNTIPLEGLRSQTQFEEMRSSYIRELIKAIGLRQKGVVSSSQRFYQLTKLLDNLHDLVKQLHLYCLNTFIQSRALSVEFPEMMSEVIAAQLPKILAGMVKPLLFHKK
# Sequence of UniProt P16473 (P16473 whole entry, looked up): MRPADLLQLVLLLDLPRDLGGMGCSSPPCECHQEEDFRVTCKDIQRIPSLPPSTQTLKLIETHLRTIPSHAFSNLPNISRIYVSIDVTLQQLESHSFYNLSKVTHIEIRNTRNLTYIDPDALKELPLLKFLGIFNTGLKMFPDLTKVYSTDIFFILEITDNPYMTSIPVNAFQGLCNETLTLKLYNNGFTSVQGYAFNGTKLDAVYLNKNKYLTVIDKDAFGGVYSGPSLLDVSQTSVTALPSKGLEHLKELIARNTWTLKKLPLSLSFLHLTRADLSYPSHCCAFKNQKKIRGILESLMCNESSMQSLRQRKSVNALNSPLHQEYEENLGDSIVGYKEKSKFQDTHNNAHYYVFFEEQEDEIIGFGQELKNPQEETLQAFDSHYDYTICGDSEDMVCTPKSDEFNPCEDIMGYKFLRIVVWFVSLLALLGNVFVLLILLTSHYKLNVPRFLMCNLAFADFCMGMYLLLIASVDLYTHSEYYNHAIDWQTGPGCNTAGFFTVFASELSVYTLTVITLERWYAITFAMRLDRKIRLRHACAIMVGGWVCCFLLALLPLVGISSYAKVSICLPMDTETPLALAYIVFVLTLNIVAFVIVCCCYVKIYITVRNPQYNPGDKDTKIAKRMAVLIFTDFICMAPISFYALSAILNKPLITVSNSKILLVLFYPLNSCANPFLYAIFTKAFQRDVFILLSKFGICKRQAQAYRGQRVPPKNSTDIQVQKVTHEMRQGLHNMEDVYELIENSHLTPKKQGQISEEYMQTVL
compound,measurement,setting,value
Cc1cc(NC(=O)C(=O)O)cc(C)c1Oc1ccc(O)c2c1CCC2,Potency,[1],"inconclusive: 27.3 µM [cytotoxic, single point]"
same,Potency,[2],inactive
Clc1cc(Cl)c2c(c1)N=C1CCCCCN1C2,Potency,[1],"inconclusive: 8.41 µM [cytotoxic, partial curve, poor fit]"
same,Potency,[3],"inconclusive: 26.6 µM [cytotoxic, partial curve]"
same,"activity change, negative = inhibition",[4],inconclusive: -16.5% [at 42.5 µM]
same,Potency,[5],"inconclusive: 6.01 µM [rising, partial curve, poor fit]"
CN(C)C(=O)NC1(c2ccccc2)CCN(CCC[C@]2(c3ccc(Cl)c(Cl)c3)CCCN(C(=O)c3ccccc3)C2)CC1,Potency,[1],"inconclusive: 9.2 µM [cytotoxic, single point]"
same,Potency,[3],inconclusive: 13 µM [cytotoxic]
same,Potency,[6],"inconclusive: 0.291 µM [cytotoxic, full curve, poor fit]"
CCCCOC(=O)COc1ccc(Cl)cc1Cl,Potency,[1],inactive
same,Potency,[3],inactive
O=C(/C=C/c1ccccc1)NCCO,Potency,[1],"inconclusive: 37.6 µM [cytotoxic, single point]"
same,Potency,[2],"inconclusive: 1.19 µM [falling, single point]"
CCCN(CCC)S(=O)(=O)c1ccc(C(=O)O)cc1,Potency,[1],inactive
same,Potency,[2],inactive
same,Potency,[6],inactive
same,Potency,[7],"inconclusive: 2.37 µM [rising, full curve, poor fit]"
CC(C)(C)C(=O)CCc1ccc(Cl)cc1,Potency,[1],inactive
same,Potency,[4],inactive
same,Potency,[6],"inconclusive: 27.3 µM [rising, single point]"
O=C(O)CCc1nc2ccccc2[nH]1,Potency,[1],inactive
same,Potency,[3],"inconclusive: 8.41 µM [cytotoxic, partial curve, poor fit]"
same,Potency,[4],inactive
CC1CCC(C(C)(C)O)CC1 (stereo not drawn),Potency,[1],inactive
same,"activity change, negative = inhibition",[4],inconclusive: 4.61%
C#CC(O)CCC (stereo not drawn),Potency,[1],inactive
same,Potency,[3],inactive
same,Potency,[7],inactive
CCCCC(CC)COC(=O)CS (stereo not drawn),Potency,[1],"inconclusive: 69.4 µM [cytotoxic, single point]"
same,Potency,[4],"inconclusive: 43.3 µM [rising, partial curve, poor fit]"
COC(=O)C(C)(C)C,Potency,[1],"inconclusive: 49.3 µM [cytotoxic, partial curve]"
same,activation,[2],inconclusive: 7.5%
same,Potency,[6],"inconclusive: 27.7 µM [cytotoxic, single point]"
same,Potency,[7],"inconclusive: 22 µM [cytotoxic, partial curve]"
O=Cc1ccccc1S(=O)(=O)O,Potency,[1],inactive
same,Potency,[2],inactive
CC(C)(C)c1cc(CCC(=O)NN)cc(C(C)(C)C)c1O,Potency,[1],inconclusive: 77 µM [cytotoxic]
same,Potency,[8],inactive
same,Potency,[6],inactive
same,Potency,[7],inactive
FC(F)(Cl)C(F)(Cl)Cl,Potency,[1],inactive
same,"activity change, negative = inhibition",[4],inconclusive: 6.59%
same,Potency,[6],inactive
C1CSCCS1,Potency,[1],inactive
same,"activity change, negative = inhibition",[4],inconclusive: 1.66%
CC1(C)[C@@H]2CC[C@]3(C2)[C@@H]1C(=O)CCC3(C)C,Potency,[1],"inconclusive: 30.6 µM [cytotoxic, full curve, poor fit]"
same,Potency,[3],inactive
same,Potency,[4],inactive
same,Potency,[7],active: 27.3 µM
CC(Cl)COP(=O)(OCC(C)Cl)OCC(C)Cl (stereo not drawn),Potency,[1],inactive
same,"activity change, negative = inhibition",[4],inconclusive: -43.9%
CCCCC1C(=O)N(c2ccccc2)N(c2ccccc2)C1=O,Potency,[1],"inconclusive: 68.6 µM [cytotoxic, single point]"
same,Potency,[3],inactive
O=C(NCCO[N+](=O)[O-])c1cccnc1,Potency,[1],inactive
same,Potency,[8],inactive
same,Potency,[4],inactive
same,Potency,[6],inactive
O=C1N(c2ccccc2)c2ccccc2C1(Cc1ccncc1)Cc1ccncc1,Potency,[1],inactive
same,Potency,[2],inactive
same,"activity change, negative = inhibition",[4],inconclusive: -13.4% [at 42.5 µM]
CC[N+](C)(C)c1cccc(O)c1,Potency,[1],"inconclusive: 26.6 µM [rising, single point]"
same,"activity change, negative = inhibition",[4],inconclusive: 12.3% [at 42.5 µM]
CCN(CC)CC1CCCCN1CC(=O)N1c2ccccc2C(=O)Nc2cccnc21 (stereo not drawn),Potency,[1],inactive
same,Potency,[4],inactive
NC(=O)Nc1ccccc1,Potency,[1],inactive
same,Potency,[4],inactive
O=S(=O)(O)NC1CCCCC1,Potency,[1],"inconclusive: 33.5 µM [cytotoxic, single point]"
same,Potency,[2],active: 4.12 µM
same,Potency,[7],"inactive and inconclusive: 15.4 µM [cytotoxic, single point]"
Nc1cccc([N+](=O)[O-])c1,Potency,[1],inactive
same,"activity change, negative = inhibition",[4],inconclusive: -5.97%
COC=O,Potency,[1],"inconclusive: 0.126 µM [cytotoxic, partial curve, poor fit]"
same,"activity change, negative = inhibition",[4],inactive: -3.19% [at 8.39 µM]
